About 6,400 (1.6%) of roughly 410,000 compounds were called active. The shares of active, inactive and inconclusive entries below differ from those in the screen. The call rests on the fitted dose curve; in most records, active means well fitted inhibition curve with a large enough effect; inconclusive means small, poorly fitted or top-dose-only effect; inactive means no such curve, though single readings can be large or run the other way. No potency is given beside an inconclusive call; the fits are too rough.
The compounds below were run against Glucagon-like peptide 1 receptor (Homo sapiens) (UniProt P43220) (assay: qHTS of GLP-1 Receptor Inverse Agonists (Inhibition Mode)). Conditions: HEK293 GLP-1R CRE-luciferase, luminescence, 24 h, GLP-1R form is constitutively active; series mostly up to 38.3 µM.
Method in brief: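 Inverse agonists were sought by their lowering of basal cAMP reporter luciferase output in HEK293 cells stably carrying constitutively active human GLP-1R, after 24 h compound treatment.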
Further: nearly all actives have a fitted effect of over 55% in size.
Potency means the concentration at half of the fitted maximal effect; tags describe the fitted curve by direction and shape.

Sequence of UniProt P43220 (P43220 whole entry, looked up): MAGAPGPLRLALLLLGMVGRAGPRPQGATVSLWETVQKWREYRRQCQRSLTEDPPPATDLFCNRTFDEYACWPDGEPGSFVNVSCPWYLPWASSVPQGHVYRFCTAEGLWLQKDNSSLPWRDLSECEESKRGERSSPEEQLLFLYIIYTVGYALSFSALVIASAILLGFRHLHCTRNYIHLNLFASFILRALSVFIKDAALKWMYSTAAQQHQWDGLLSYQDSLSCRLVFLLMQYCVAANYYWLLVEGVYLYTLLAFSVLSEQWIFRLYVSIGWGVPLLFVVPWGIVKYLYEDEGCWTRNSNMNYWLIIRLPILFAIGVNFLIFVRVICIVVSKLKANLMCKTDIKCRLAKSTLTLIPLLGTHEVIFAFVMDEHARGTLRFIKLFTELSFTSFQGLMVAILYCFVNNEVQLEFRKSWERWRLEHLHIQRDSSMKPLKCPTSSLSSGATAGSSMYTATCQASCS

| SMILES | Potency |
| --- | --- |
| CCOC(=O)CC(S(=O)(=O)c1ccccc1)S(=O)(=O)c1ccccc1 | inconclusive [inhibitor, single point] |
| COc1ccc(NC(=O)C2(C)Cc3c(-c4ccccc4)ccnc3O2)cn1 (stereo unspecified) | inconclusive [inhibitor, full curve, poor fit] |
| COc1cc(NC(=S)NCc2cccnc2)cc(OC)c1OC | inactive |
| COc1ccccc1NS(=O)(=O)c1ccc(C(=O)N2CCCCCCC2)cc1 | inconclusive [inhibitor, partial curve] |
| COC(=O)c1cccc(NC(=O)Nc2ccc(Cl)cc2Cl)c1 | inconclusive [inhibitor, single point] |
| O=C(COc1ccc([N+](=O)[O-])cc1)NCC1(N2CCOCC2)CCCCC1 | inactive |
| Cc1cccc(N2CCN(C(=O)c3cc(COc4ccc(F)c(F)c4)on3)CC2)n1 | inconclusive [inhibitor, partial curve, poor fit] |
| CCN(CC)CCCC1(CN)OCCc2ccccc21 (stereo unspecified) | inconclusive [inhibitor, partial curve, poor fit] |
| Cc1cccc(NC(=O)c2c(C)cc(C)nc2SCC(=O)Nc2c(C)cc(C)cc2C)c1 | inconclusive [inhibitor, single point] |
| Clc1ccc(CSc2nnc(-c3c[nH]c4ccccc34)o2)cc1 | inconclusive [inhibitor, single point] |
| CCOc1cccc(-c2c(C(=O)N/N=C(\C)c3cccs3)nnn2-c2nonc2N)c1 | inconclusive [inhibitor, partial curve, poor fit] |
| CN(C)CCCN(Cc1cc2cc3c(cc2[nH]c1=O)OCO3)C(=S)Nc1cccc(Cl)c1 | inconclusive [inhibitor, single point] |
| Cc1ccccc1NC(=O)OCc1ccccc1 | inconclusive [inhibitor, single point] |
| Cc1cc(C)n(Cc2ccc(C(=O)NCCC3=CCCCC3)o2)n1 | inconclusive [inhibitor, partial curve, poor fit] |
| OC(CN(c1ccccc1)c1ccccc1)Cn1cnc2ccccc21 (stereo unspecified) | inconclusive [inhibitor, partial curve, poor fit] |
| O=C(CSCc1ccccc1)NCc1ccc2c(c1)OCO2 | inconclusive [inhibitor, single point] |
| Cc1ccc(NC(=O)C2CCCN(C(=O)Nc3ccc(F)cc3)C2)cc1 (stereo unspecified) | inconclusive [inhibitor, partial curve, poor fit] |
| CCOC(=O)c1cc(C#N)c(N2CCCC2)nc1-c1ccccc1 | inconclusive [inhibitor, partial curve, poor fit] |
| C=C(C)CNc1cc(S(=O)(=O)N2CCOCC2)ccc1Oc1ccccc1 | inconclusive [inhibitor, partial curve, poor fit] |
| COCCNc1nc(NCc2cccc(OC)c2)c2sc(-c3ccccc3)cc2n1 | inconclusive [inhibitor, partial curve, poor fit] |
| CC(C)CC(=O)NC(=S)Nc1nc(-c2ccccc2)cs1 | inconclusive [inhibitor, single point] |

| SMILES | Potency |
| --- | --- |
| COc1ccccc1/C=C(/CC(=O)NCc1ccc(F)cc1)c1nc2ccccc2s1 | inconclusive [inhibitor, partial curve, poor fit] |
| CC(=O)Oc1ccc(N(C(C)=O)S(=O)(=O)c2ccc3ccccc3c2)cc1Br | inconclusive [inhibitor, partial curve, poor fit] |
| O=C(NCc1ccc(Cl)cc1)c1ccc(-c2ccc(F)c(F)c2)c2ccoc12 | inconclusive [inhibitor, full curve] |
| O=C1c2ccccc2OC2(C=Cc3ccccc3O2)N1Cc1ccccc1 (stereo unspecified) | inconclusive [inhibitor, partial curve, poor fit] |
| O=C(NCc1ccc2c(c1)OCO2)c1nc(S(=O)(=O)Cc2ccccc2F)ncc1Cl | inconclusive [inhibitor, single point] |
| O=C(/C=C/c1ccc([N+](=O)[O-])cc1)N1CCN(Cc2ccccc2)CC1 | inactive |
| COc1cc(C2CC(=O)N(Cc3ccc(F)cc3)c3ccccc3S2)cc(OC)c1OC (stereo unspecified) | active: 11.2 µM |
| COc1ccccc1NC(=O)C12CC3CC(C1)CC(c1ccc(C)cc1)(C3)C2 | inconclusive [inhibitor, single point] |
| COc1cc(CNC2CCCC2)cc(Cl)c1OCc1ccccc1F | active: 3.55 µM |
| COC(=O)c1cc(NC(=O)[C@H](CCS(C)(=O)=O)N2Cc3ccccc3C2=O)cc(C(=O)OC)c1 | inactive |
| C[C@@H]1CCCCO[C@H](CN(C)C(=O)NC2CCCCC2)[C@@H](C)CN([C@H](C)CO)C(=O)c2cc(NC(=O)c3ccccc3)ccc2O1 | inactive |
| COc1ccc(Br)c(C(=O)Nc2cc3c(cc2N2CCCCC2)n(C)c(=O)c(=O)n3C)c1 | inactive |
| CCOc1ccc(CNC(=S)N/N=C/c2cccnc2)cc1 | inconclusive [inhibitor, single point] |
| COc1ccc(OC)c(/C=N\NC(=O)c2ccc(-c3ccccc3)cc2)c1 | inconclusive [inhibitor, partial curve, poor fit] |
| Cc1cc([N+](=O)[O-])ccc1NC(=O)C(C)N1CCN(c2ccccn2)CC1 (stereo unspecified) | inactive |
| Cc1cc(N2CCCCC2C)nc(-c2ccccc2O)n1 (stereo unspecified) | active: 11.2 µM |
| Cc1ccc(S(=O)(=O)N2CCOCC2)cc1C(=O)N1CC(C)CC(C)C1 (stereo unspecified) | inactive |
| Cc1ccc(C)c(CN2C(=O)c3ccccc3S(=O)c3ccc(C(=O)N4CCN(c5ccccc5F)CC4)cc32)c1 (stereo unspecified) | inconclusive [inhibitor, partial curve, poor fit] |
| CC(C)C[C@@H]1COc2cc(N3CCC[C@@H]3CO)ccc2S(=O)(=O)N1 | inactive |
| Cc1ccc(NC2CCCN(C(=O)CCC3(C)CC3)C2)cc1C (stereo unspecified) | inconclusive [inhibitor, partial curve, poor fit] |
